# Reference: PubChem BioAssay AID504845 (National Center for Advancing Translational Sciences (NCATS), 2011)
# The whole screen tested about 390,000 compounds, of which about 150 (0.038%) were called active. The shares of active, inactive and inconclusive entries below differ from those in the screen. Calls come from the whole dose curve; as a rule, active = well fitted inhibition curve with a large enough effect; inconclusive = small, poorly fitted or top-dose-only effect; inactive = no such curve, though single readings can be large or run the other way. Where the call is inconclusive, the potency comes from a doubtful curve fit.
# Molecular target: Regulator of G-protein signaling 4 (Homo sapiens) (UniProt P49798)
# UniProt P49798, sequence (P49798 whole entry, looked up): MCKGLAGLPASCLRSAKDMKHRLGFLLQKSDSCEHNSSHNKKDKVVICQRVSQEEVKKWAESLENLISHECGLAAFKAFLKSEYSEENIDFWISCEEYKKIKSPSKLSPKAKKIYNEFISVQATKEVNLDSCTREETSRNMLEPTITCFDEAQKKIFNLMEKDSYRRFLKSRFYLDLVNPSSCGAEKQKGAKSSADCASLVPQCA
# Experiment: Inhibitors of Regulator of G Protein Signaling (RGS) 4: qHTS; note: nearly all actives have a fitted effect of over 75% in size
# Conditions: Transcreener GDP fluorescence polarization, RGS4-accelerated GTP hydrolysis; series mostly up to 114 µM
# Procedure, shortened: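 MLSMR compounds (23 nl, pin-transferred) preincubated 10 min at room temperature with a 500nM (2x) first reagent, then RGS4 at 900nM (2x) plus Transcreener GDP mix added; fluorescence polarization (620/688 nm) read before and after 90 min at 30 °C.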
# Potency is the fitted concentration of half-maximal effect; tags give direction and shape of the fitted curve.
row,SMILES,Potency
1,C=C1C(=O)C23CCC4C(C)(C(=O)OC)CCCC4(C)C2CCC1(O)C3 (centres undefined),"inconclusive: 39.8 µM [inhibitor, partial curve, poor fit]"
2,COc1ccc(CCNC(=O)c2nc(SCc3ccc(F)cc3)ncc2Cl)cc1OC,inactive
3,NS(=O)(=O)c1cccc2cccnc12,inactive
4,CCc1ccc(NC2CC(=O)N(CCc3ccc(OC)c(OC)c3)C2=O)cc1 (centres undefined),"inconclusive: 31.6 µM [inhibitor, full curve, poor fit]"
5,O=C(O)c1cccc(-n2cccc2/C=C2/NC(=O)N(c3ccc(Cl)cc3)C2=O)c1,"inconclusive: 39.8 µM [inhibitor, partial curve, poor fit]"
6,CN(C)CCCNc1c2c(nc3ccccc13)CCC2,"inconclusive: 56.2 µM [inhibitor, partial curve, poor fit]"
7,CC1=C(C(=O)c2ccccc2)C(c2ccc(OC(F)F)cc2)NC(=S)N1 (centres undefined),"inconclusive: 79.4 µM [inhibitor, partial curve, poor fit]"
8,Cc1ccc(N2C(=O)C3C4C=CC(CNC(=S)N5CCN(c6cccc(C)c6)C(C)C5)(O4)C3C2=O)cc1 (centres undefined),"inconclusive: 100 µM [inhibitor, partial curve, poor fit]"
9,CCN1CCN(CCNC(=O)c2ccc(/C=C3/Sc4ccccc4N(Cc4cccc(C)c4)C3=O)cc2)CC1,"inconclusive: 50.1 µM [inhibitor, partial curve, poor fit]"
10,COc1ccc(-c2csc(NC(C)=O)n2)cc1OC,"inconclusive: 89.1 µM [inhibitor, partial curve, poor fit]"
11,CCOc1cc(N2CCOCC2)c(OCC)cc1NC(=O)c1c(C)noc1C,"inconclusive: 89.1 µM [inhibitor, single point]"
12,Cc1ccc(-c2noc(-c3ccc(NC4CCCC4)c([N+](=O)[O-])c3)n2)cc1,inactive
13,CCc1ccc2c(c1)C1(NN=C(c3ccccc3)S1)C(=O)N2 (centres undefined),"inconclusive: 31.6 µM [inhibitor, full curve, poor fit]"
14,COc1ccc(C)cc1NC(=O)C1CCCN1S(=O)(=O)c1ccc2c(c1)CCC(=O)N2 (centres undefined),"inconclusive: 89.1 µM [inhibitor, single point]"
15,Cc1ccc(S(=O)(=O)N/N=C\c2cc3c(cc2[N+](=O)[O-])OCO3)cc1,"inconclusive: 100 µM [inhibitor, partial curve, poor fit]"
16,CC1=CC(=NOC(=O)/C=C/c2ccccc2)C=C(C)C1=O,"inconclusive: 50.1 µM [inhibitor, partial curve, poor fit]"
17,COc1cc(/C=N/NC(=O)c2nnn(-c3nonc3N)c2C(C)C)ccc1OCc1ccc(F)cc1,inactive
18,Cc1ccc(C(=O)N/N=C/c2ccc(-c3ccc(Br)cc3[N+](=O)[O-])o2)o1,"inconclusive: 44.7 µM [inhibitor, partial curve, poor fit]"
19,COc1ccccc1NS(=O)(=O)c1cc(NC(=O)c2cccs2)ccc1N1CCCC1,"inconclusive: 10 µM [inhibitor, full curve, poor fit]"
20,COc1cccc(CNC(=O)C2Cc3ccccc3CN2C(C)=O)c1 (centres undefined),"inconclusive: 44.7 µM [inhibitor, partial curve, poor fit]"
21,O=C(O)Cc1sc(Nc2ccccc2)nc1-c1cccs1,"inconclusive: 56.2 µM [inhibitor, partial curve, poor fit]"
22,CS(=O)(=O)c1ncc(Cl)c(C(=O)N(Cc2ccc(Cl)cc2)Cc2ccco2)n1,"inconclusive: 20 µM [inhibitor, full curve, poor fit]"

row,SMILES,Potency
1,CN1CCN(c2nc(-c3ccc(Cl)s3)cs2)CC1,"inconclusive: 31.6 µM [inhibitor, full curve, poor fit]"
2,S=c1[nH]nc(COc2ccc3ccccc3c2)o1,inactive
3,O=C(/C=C/c1ccco1)N1CCCC(c2ccccc2)C1 (centres undefined),"inconclusive: 31.6 µM [inhibitor, full curve, poor fit]"
4,COc1ccccc1CN1C[C@@H]2C[C@@H](c3ccc4nsnc4c3)N3CCC[C@@]23C1=O,inactive
5,CCOc1ccc(OCCOCCNCCOC)cc1,inactive
6,CC(=Nc1ccc(Br)cc1)c1sc2ccccc2c1O,inactive
7,O=C(c1nc2ccccn2c1CNCCCn1ncc2ccccc21)N1CCCC1,inactive
8,Cc1ccccc1/C=C1\SC(=S)N(/N=C/c2cc([N+](=O)[O-])ccc2O)C1=O,"inconclusive: 50.1 µM [inhibitor, partial curve, poor fit]"
9,CCSc1ncnc2sc3c(c12)CCC3,inactive
10,CCOC(=O)c1nnn(-c2ccc([N+](=O)[O-])cc2[N+](=O)[O-])c1C,inactive
11,Cc1ccc(-n2c(CCC(=O)O)ccc2-c2cccs2)cc1C,"inconclusive: 89.1 µM [inhibitor, single point]"
12,COc1ccc(OCC(=O)Nc2nnc(S(=O)(=O)N3CCCCCC3)s2)cc1,inactive
13,Cc1cc(C(=O)N/N=C2\CC(=O)CC(C)(C)C2)c(C)n1-c1ccc(F)cc1,inactive
14,CC(CCc1ccccc1)NC(=O)CN1CCc2ccccc2C1 (centres undefined),"inconclusive: 39.8 µM [inhibitor, full curve, poor fit]"
15,Cn1c2ccccc2c2n[nH]c(=O)nc21,inactive
16,CC(C)Cc1nc2ccccc2n1CCc1ccccc1,inactive
17,CC(=O)Nc1c2c(nn1-c1ccccc1C)CS(=O)C2 (centres undefined),"inconclusive: 50.1 µM [inhibitor, single point]"
18,O=C1Cc2cc(S(=O)(=O)N3CCNCC3)ccc2N1,"inconclusive: 100 µM [inhibitor, single point]"
19,Cc1ccc(N2C(S)=C(C#N)C(=O)NC2c2cccs2)cc1 (centres undefined),"inconclusive: 44.7 µM [inhibitor, partial curve, poor fit]"
20,COc1cc(/C=C2/SC(=S)N(CC(=O)O)C2=O)ccc1OC(=O)c1cccs1,"inconclusive: 44.7 µM [inhibitor, partial curve, poor fit]"
21,COc1ccc2nc(SCC(C)=O)c(C#N)cc2c1,inactive
22,CC1=C(OC(=O)c2ccccc2)C(C)(C)C(c2ccc(Br)cc2)OC1=O (centres undefined),"inconclusive: 89.1 µM [inhibitor, single point]"
